From the supplement of paper PMC3334620
In all, about 33,000 sequences were measured (“E-score (-0.5 to 0.5)”: median about -0.054, highest 2% from about 0.35 on). This is one part of the list.

Each sequence was assayed against T1, Stb5 (UniProt P38699) (assay: PBM E-score (8-mer binding enrichment) (E-score (-0.5 to 0.5)); higher = stronger / more preferred TF binding; most listed sequences are background and not binding sites). Conditions: protein concentration: 200 nM; construct: GST-full length.
T1 sequence: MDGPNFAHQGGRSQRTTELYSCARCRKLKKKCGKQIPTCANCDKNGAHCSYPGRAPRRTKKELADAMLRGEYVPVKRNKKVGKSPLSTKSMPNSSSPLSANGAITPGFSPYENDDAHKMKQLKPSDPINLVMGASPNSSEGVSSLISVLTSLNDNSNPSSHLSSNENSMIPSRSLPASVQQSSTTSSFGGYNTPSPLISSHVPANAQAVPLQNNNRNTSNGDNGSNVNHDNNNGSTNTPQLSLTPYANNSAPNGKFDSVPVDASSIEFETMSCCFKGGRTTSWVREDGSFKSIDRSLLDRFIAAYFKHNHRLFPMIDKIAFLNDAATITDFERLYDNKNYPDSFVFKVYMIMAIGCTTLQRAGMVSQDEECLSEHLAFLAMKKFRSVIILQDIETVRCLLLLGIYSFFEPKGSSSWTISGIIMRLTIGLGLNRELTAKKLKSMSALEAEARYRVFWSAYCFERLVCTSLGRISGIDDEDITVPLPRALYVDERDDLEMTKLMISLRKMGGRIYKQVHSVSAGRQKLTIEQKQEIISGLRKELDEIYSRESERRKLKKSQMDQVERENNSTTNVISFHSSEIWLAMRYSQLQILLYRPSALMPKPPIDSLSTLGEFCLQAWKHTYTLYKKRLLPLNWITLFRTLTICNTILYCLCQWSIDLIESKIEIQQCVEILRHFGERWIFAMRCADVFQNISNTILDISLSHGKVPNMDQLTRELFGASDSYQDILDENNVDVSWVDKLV
Summary of the method: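 Universal all-10-mer Agilent arrays, fresh or stripped once, were converted to double-stranded form by primer extension. GST-tagged yeast transcription factors from PURExpress in vitro transcription/translation, full-length or DNA-binding domain only, were applied at about 100-200 nM and detected with fluorescent anti-GST. After masliner normalisation, the Universal PBM Analysis Suite scored each ungapped eight-base word together with its reverse complement by E-score.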

Sequence	PBM E-score
AGGCGATA	-0.0449
GCCGTAGC	0.255
CGTCAGAG	0.108
ATGTCCCG	0.219
CACTGGCG	-0.0814
GGGCCTAC	0.066
CCTACAAA	-0.067
GCACCACC	0.00033
ACCCGAGA	-0.0132
CGGTGAGA	0.308
AGACCCGG	0.341
ACTGTGCT	-0.241
CAATACAC	0.0404
ATTGGAAA	-0.0189
AGTAAAAT	-0.0638
TATCAATA	-0.107
AACCACAC	-0.0692
GTACCTTA	-0.108
CAATGCAA	-0.237
GCCTAACA	0.135
CTGACAGA	-0.0917
CGGAGACC	0.109
CTATTAAG	-0.0932
TCACGGAA	0.143
AGCCGCCA	0.175

Sequence	PBM E-score
CGGGCTCA	0.358
AAGCATCC	0.0903
ATTTAGCC	0.165
CCATTTAC	0.105
AAAGAGGT	-0.0965
ACCACTAT	-0.311
ACCCAGCG	-0.0786
AAGGGATT	-0.0692
ACTGAGGA	-0.0568
GACTCAAC	0.053
ATTTTGAA	-0.00475
AGCAGATA	-0.0426
CTTGCATA	-0.0771
GATACAAC	0.0993
ATTTACGG	0.308
CCACTAAC	-0.171
TGCATGAA	-0.171
CACCGTCG	0.373
CATAGTGG	-0.00613
AGAAGCAG	-0.173
GACGAGGA	-0.294
ACAAGGTG	-0.00144
CTCTGGTA	-0.154
AGCCGTGG	-0.0217
AGATCGTC	-0.196

Sequence	PBM E-score
ACCAACTG	-0.19
TATCGCGA	0.0404
AGGCCGAA	0.148
GACATTAC	0.0556
ATGATGAA	-0.196
CACATCCC	-0.137
GGCGATAA	0.284
GGGCTTGA	-0.178
CCAATTGC	-0.138
ACACAGGG	-0.00359
CATGGCAA	-0.214
AACCTGAA	-0.145
TGCTGTAA	-0.143
TTCAACAA	0.0239
CCAACTAG	-0.285
GCCGAACA	0.105
AAATTATT	0.00447
CCCGAATA	0.179
AAGTAGAC	-0.125
GATAGAGC	0.191
TGCCAAAA	-0.0261
AAAGTTCA	0.0451
ACTTTACG	-0.146
GTATTAAC	0.163
CGTGGGAA	-0.29

Sequence	PBM E-score
TAGCGGAA	0.106
ACAGCTAG	-0.15
ATCCACTG	-0.193
ACCTTGCT	-0.181
ATATGGAT	-0.268
CGGCACGC	0.26
GGGGATCA	-0.0761
ACTTCGGG	0.135
CTGTCTTC	-0.21
CAAAGCAC	-0.108
AAAGTCCC	0.274
AAGAAGAA	-0.0176
GCGATATA	0.0755
ATGTCGCA	-0.0499
CGGAACAC	0.0811
ATACGCGC	-0.0315
AGTCGTTG	-0.269
CAGAGGGA	-0.261
CCTACCGC	0.169
AGGTGTTC	-0.101
CAGGGGGG	-0.104
AGCTATTG	-0.169
AGTTGTCA	-0.0673
TAGACACA	-0.0588
TCTATCCA	-0.153

Sequence	PBM E-score
ATAAGGGG	-0.0458
ACTTATCA	-0.11
TAATGCCA	-0.111
GCCTCAAC	-0.0908
ATACTTAC	-0.129
GAATCAAA	-0.0273
CGATGCAG	-0.0534
ACTTCCTG	-0.219
GAACGAAC	0.0361
AAAGTCCA	-0.136
AATCCCTA	-0.0614
ACTATCCT	-0.0158
AGGGCTAG	-0.198
AGCCTGGA	-0.16
AGGGTCAG	-0.213
AGACAGAC	-0.0465
CTCAACTA	-0.0688
ATATAGAA	0.131
GTAGACTA	-0.00029
ACTTACCA	-0.138
CCTTGGGA	-0.0865
TAATAGAA	-0.074
AGTCGAGG	-0.0953
ACCCCGAC	0.444
CGGGCTAA	0.3

Sequence	PBM E-score
CCGGCAAC	0.298
CAAGTAGA	-0.0427
AGGGACGA	0.00173
TGCATTAA	-0.146
TCTTACCA	-0.0054
CTAGGAAA	-0.0895
CCTTATGC	-0.172
GAGCTATC	0.0611
ATGACTGG	-0.128
CCGTCCCG	0.239
GCGGCGGA	0.333
GAGATGGC	0.0637
GTCCAGAA	-0.0587
CACAGTTC	-0.0473
CACTTTCG	-0.104
CATAGCGA	-0.153
CGTCACCC	0.0988
AGGTGGGG	-0.136
GTCCCTGA	-0.284
AAAATGGC	-0.0128
TATGCAAA	-0.233
GGCCGACC	0.271
AATGCATC	-0.252
AACGGGCA	0.276
AGAATATA	0.0197

Sequence	PBM E-score
AAATGCTA	-0.223
ACGATTCA	-0.119
AGGGTAAT	-0.0459
CGCTCCCC	-0.0584
TCCTCAAA	-0.0986
CGAGGGCG	0.178
ACACAGAC	0.0166
AGGTTAAA	-0.0365
ACCATATC	-0.0669
ATATATGG	0.0193
AGTCTAAG	0.0845
CAGCTTGA	-0.173
ATTCTCAA	-0.165
GCAGTTCC	-0.136
AGTACATA	-0.113
ACTCAGTG	-0.207
CCTCGTCA	-0.192
CTAGTTGA	-0.117
CCCTGTAA	-0.0001
CTCACTAC	-0.0904
AAAAAGCT	-0.205
AATTAGAG	-0.179
